Measurements as given in PMC7997005, “Dynamic interplay between the co-opted Fis1 mitochondrial fission protein and membrane contact site proteins in supporting tombusvirus replication” (PLoS Pathogens, 2021).
These are yes or no findings as the source states them, for the method shown. In cells and extracts the contact can be indirect. Some results given as binding are weak or reduced against the parent protein; the word gives no strength. Sequences can lack the tags named with a protein.

T1: Flag-AtFis1B (Arabidopsis thaliana) (UniProt Q94CK3)
T1 sequence: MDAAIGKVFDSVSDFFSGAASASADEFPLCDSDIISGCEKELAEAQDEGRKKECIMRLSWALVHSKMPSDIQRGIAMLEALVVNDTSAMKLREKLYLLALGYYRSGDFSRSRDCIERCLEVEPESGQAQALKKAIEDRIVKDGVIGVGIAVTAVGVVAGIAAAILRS

T2: cYFP-AtFis1B (Arabidopsis thaliana) (UniProt Q94CK3)
T2 sequence: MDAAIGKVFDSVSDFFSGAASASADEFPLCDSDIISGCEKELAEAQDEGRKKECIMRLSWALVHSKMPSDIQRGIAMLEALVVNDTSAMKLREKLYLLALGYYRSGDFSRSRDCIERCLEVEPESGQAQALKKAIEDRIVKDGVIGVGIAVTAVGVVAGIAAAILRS

T3: TBSV p33-cYFP replication protein (tomato bushy stunt virus (TBSV)) (UniProt P15962)
T3 sequence: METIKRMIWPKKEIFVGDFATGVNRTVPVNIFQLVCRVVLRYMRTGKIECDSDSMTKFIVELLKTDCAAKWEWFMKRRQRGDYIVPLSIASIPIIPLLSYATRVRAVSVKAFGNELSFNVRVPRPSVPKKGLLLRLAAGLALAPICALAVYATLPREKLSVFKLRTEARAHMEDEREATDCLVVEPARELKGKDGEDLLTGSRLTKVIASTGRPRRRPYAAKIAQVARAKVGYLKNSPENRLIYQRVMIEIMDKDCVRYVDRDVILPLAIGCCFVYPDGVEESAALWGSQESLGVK

T4: cYFP-AtFis1A (Arabidopsis thaliana) (UniProt Q9M1J1)
T4 sequence: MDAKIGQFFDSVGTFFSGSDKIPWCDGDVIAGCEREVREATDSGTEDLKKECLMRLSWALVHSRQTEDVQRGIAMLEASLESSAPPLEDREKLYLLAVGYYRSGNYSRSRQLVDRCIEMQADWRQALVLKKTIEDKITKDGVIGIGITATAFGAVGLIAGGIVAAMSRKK


Legend:
[1] = biological target: Flag-AtFis1A (Arabidopsis thaliana) (UniProt Q9M1J1); assay: co-IP; Flag-affinity purification of Flag-AtFis1A or Flag-AtFis1B from N. benthamiana infected with TBSV and expressing p33-HA; co-purified p33-HA detected with anti-HA antibody
[2] = biological target: T1, Flag-AtFis1B (Arabidopsis thaliana); assay: as above
[3] = biological target: T2, cYFP-AtFis1B (Arabidopsis thaliana); assay: split reporter; BiFC (nYFP/cYFP fusions, 35S promoter, co-agroinfiltration) in N. benthamiana leaves infected with TBSV or CIRV; confocal microscopy; includes TRV-MBP control plants
[4] = biological target: T3, TBSV p33-cYFP replication protein (tomato bushy stunt virus (TBSV)); assay: as above
[5] = biological target: T2, cYFP-AtFis1B (Arabidopsis thaliana); assay: split reporter; BiFC in mock-infected (noninfected) N. benthamiana leaves, in the absence of TBSV replication
[6] = biological target: T4, cYFP-AtFis1A (Arabidopsis thaliana); assay: as above
[7] = biological target: T4, cYFP-AtFis1A (Arabidopsis thaliana); assay: split reporter; BiFC (nYFP/cYFP fusions, 35S promoter, co-agroinfiltration) in N. benthamiana leaves infected with TBSV or CIRV; confocal microscopy; includes TRV-MBP control plants
[8] = biological target: T3, TBSV p33-cYFP replication protein (tomato bushy stunt virus (TBSV)); assay: condition: only in Fis1-silenced (VIGS) plant cells; split reporter; BiFC in TBSV-infected N. benthamiana leaves with VIGS-based silencing of Fis1 (TRV-NbFis1)

| Binder | binding [1] | binding [2] | binding [3] | binding [4] | binding [5] | binding [6] | binding [7] | binding [8] |
| --- | --- | --- | --- | --- | --- | --- | --- | --- |
| HA-tagged TBSV p33 replication protein (protein, UniProt P15962 1-296) METIKRMIWPKKEIFVGDFATGVNRTVPVNIFQLVCRVVLRYMRTGKIECDSDSMTKFIVELLKTDCAAKWEWFMKRRQRGDYIVPLSIASIPIIPLLSYATRVRAVSVKAFGNELSFNVRVPRPSVPKKGLLLRLAAGLALAPICALAVYATLPREKLSVFKLRTEARAHMEDEREATDCLVVEPARELKGKDGEDLLTGSRLTKVIASTGRPRRRPYAAKIAQVARAKVGYLKNSPENRLIYQRVMIEIMDKDCVRYVDRDVILPLAIGCCFVYPDGVEESAALWGSQESLGVK | binds | binds | – | – | – | – | – | – |
| nYFP-AtVAP27-1 (protein, UniProt Q8VZ95 1-256) MSNIDLIGMSNRDLIGMSNSELLTVEPLDLQFPFELKKQISCSLYLTNKTDNNVAFKVKTTNPKKYCVRPNTGVVLPRSTCEVLVTMQAQKEAPSDMQCKDKFLLQGVIASPGVTAKEVTPEMFSKEAGHRVEETKLRVTYVAPPRPPSPVHEGSEEGSSPRASVSDNGHGSEFSFERFIVDNKAGHQENTSEARALITKLTEEKQSAIQLNNRLQRELDQLRRESKKSQSGGIPFMYVLLVGLIGLILGYIMKRT | – | – | binds | binds | binds | binds | – | – |
| nYFP-AtPVA12 VAP protein (protein, UniProt Q9SHC8 1-239) MSNELLTIDPVDLQFPFELKKQISCSLYLGNKTDNYVAFKVKTTNPKKYCVRPNTGVVHPRSSSEVLVTMQAQKEAPADLQCKDKFLLQCVVASPGATPKDVTHEMFSKEAGHRVEETKLRVVYVAPPRPPSPVREGSEEGSSPRASVSDNGNASDFTAAPRFSADRVDAQDNSSEARALVTKLTEEKNSAVQLNNRLQQELDQLRRESKRSKSGGIPFMYVLLVGLIGLILGYIMKRT | – | – | binds | binds | binds | binds | – | – |
| nYFP-AtORP3A (protein, UniProt Q9LZM1 1-453) MASNDPKNGGGFFASLASSITNFGSAMSKSVNGLMGYEGLEVINPEGSTDDAEEEAGRGRWKQEERDGYWKMMQKYIGSDVTSMVTLPVIIFEPMTMLQKMAELMEYSYLLDMADKTEDPYMRMVYASSWAISVYYAYQRTWKPFNPILGETYEMTNHNGINFIAEQVCHHPPMSAGHAENEHFAYDCTSKLKTKFLGNSIDVYPVGRTRVTLKRDGVVLDLVPPLTKVHNLIFGRTWVDSPGEMVMTNLTTGDKVVLYFQPCGWFGSGRYEVDGYVYNSAEEPKMLMTGKWNESLSYQPCDAEGEPLPGTELKEVWKVAEAPKNDKYQYTHFAHKINSFDTAPKKLLSSDSRLRPDRYALEMGDMSKSGFEKSSLEDRQRAEKKSREEKGQKFAPKWFDETEEVTPTPWGDLEVYQFNGKYSVHRATAENSEDTTDVKLTQFNPWQFQDLSA | – | – | binds | binds | binds | – | binds | no binding |
